Data as given in PubChem BioAssay AID1346428 (National Center for Advancing Translational Sciences (NCATS), 2018).
Values joined by “and” are separate entries in the source; they are usually repeats but may differ in a detail not shown here. Equal values may be shown once. The whole screen tested about 48,000 compounds, of which about 1,200 (2.5%) were called active. Inconclusive results (about 2%) are left out.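 How the source made its calls: active means activation of at least 60% and not above a set upper limit (about 1 call in 100 departs from these limits); inconclusive means activation of 40% to 60%, or above that upper limit; inactive means activation under 40%.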 This is one part of the list.

molecular target: Probable G-protein coupled receptor 32 (Homo sapiens) (UniProt O75388); assay: qHTS for Agonists of Human Resolvin D1 Receptor DRV1; conditions: CHO-K1 GPR32 beta-arrestin PathHunter luminescence, 90 min; at 76.9 µM; stronger effect = higher value; zero percent set by DMSO-only wells
Chain of UniProt O75388 (O75388 whole entry, looked up): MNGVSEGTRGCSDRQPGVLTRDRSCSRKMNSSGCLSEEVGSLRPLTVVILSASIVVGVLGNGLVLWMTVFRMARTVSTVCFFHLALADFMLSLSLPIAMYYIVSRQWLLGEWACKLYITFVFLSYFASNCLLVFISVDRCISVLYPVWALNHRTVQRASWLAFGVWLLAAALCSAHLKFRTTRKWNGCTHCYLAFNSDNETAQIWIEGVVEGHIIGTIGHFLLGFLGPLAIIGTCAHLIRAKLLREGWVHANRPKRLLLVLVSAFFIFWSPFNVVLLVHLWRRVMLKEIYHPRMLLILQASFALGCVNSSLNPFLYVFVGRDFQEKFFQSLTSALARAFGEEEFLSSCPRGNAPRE
In short: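 Beta-arrestin recruitment read-out: luminescence from complemented beta-Gal in CHO-K1 GPR32 PathHunter cells, measured 1 h after detection reagent at ambient temperature following 90 min compound exposure at 37 °C; DMSO served as basal (EC0) control.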

activation, inactive:
COCCN1Cc2cccc(C(=O)Nc3ccc(C(=O)OC)cc3)c2C1=O 7.38%
Cc1ccc(NC(=O)c2cc(S(=O)(=O)N3CCC(C)CC3)cn2C)cc1Cl -0.797%
Cc1cc2cc(CCNS(=O)(=O)c3ccc(Br)cc3)c(=O)[nH]c2cc1C 49.1%
CCOc1ccc(-c2c(C)nn3c(C)c(C(=O)Nc4cccc(Cl)c4C)cnc23)cc1OCC 13.4%
COCCNC(=O)CCCn1c(SCC(=O)c2ccc(F)cc2)nc2c(sc3ccccc32)c1=O -11.8%
N[C@@H]1CONC1=O 6.87% and -4.99%
COc1ccccc1C(=O)Nc1ccc2nc(SCC(=O)N3CCCC3)sc2c1 -25.3%
Cc1ccc2nc(-c3ccsc3)c(Nc3ccc(C(C)C)cc3)n2c1 -26.6%
O=C(CCS(=O)(=O)c1nc(-c2cccs2)cc(C(F)(F)F)n1)Nc1ccc(Br)cc1 -42.7%
Cc1ccc(CS(=O)Cc2ccc(C(=O)NCc3ccccc3Cl)o2)cc1 (stereo not drawn) -14.7%
Cc1ccc(NC(=O)C2CCCN(c3cnccn3)C2)cc1Cl (stereo not drawn) -1.26%
Cc1ccccc1CN1C(=O)c2ccccc2Sc2ccc(C(=O)O)cc21 3.67%
O=C(O)COCCN1CCN(C(c2ccccc2)c2ccc(Cl)cc2)CC1 (stereo not drawn) -4.3%
CCOc1ccc(NC(=O)CCc2nc3cccnc3n2Cc2ccc(OC)cc2)cc1 35.2%
Nc1nnc(SCC(=O)Nc2cccc(F)c2)s1 0.371%
COc1ccccc1C(=O)Nc1cccc(OCc2cc(=O)n3c(C)csc3n2)c1 5.26%
O=S(=O)(c1cc(Br)c(Br)s1)N1CCN(c2ccccc2)CC1 9.98%
Cc1ccc(S(=O)(=O)c2nnn3c2nc(NCc2ccccc2)c2sccc23)cc1 -22.8%
CC(C)c1ccc(NC(=O)C2CCN(S(=O)(=O)c3ccc(Br)s3)CC2)cc1 10.8%
COc1ccc(-c2noc(N3CCN(c4ccc(Cl)cc4)CC3)n2)cc1OC 24.9%
CCc1nn2c(=O)cc(COC(=O)c3cccc(NC(=O)COc4ccccc4)c3)nc2s1 -12.1%
CCOc1ccc(CCNC(=O)c2cc3cc4cc(OC)ccc4nc3s2)cc1OCC 14.1%
CN1C[C@H](C(=O)N[C@]2(C)O[C@@]3(O)[C@@H]4CCCN4C(=O)[C@H](Cc4ccccc4)N3C2=O)C[C@@H]2c3cccc4[nH]cc(c34)C[C@H]21 -4.23% and -18%
COc1cccc(NC(=O)CCSc2nc(-c3ccco3)cc(C(F)(F)F)n2)c1 -25.1%
COc1ccc2c(c1)CCc1c(C(=O)Nc3cnn(Cc4ccc(Cl)cc4Cl)c3)noc1-2 -20.4%
CC(C)Cc1nn2c(=O)cc(COC(=O)c3ccccc3NC(=O)c3cccs3)nc2s1 -10.9%
CCOc1ccccc1NC(=O)C(=O)c1cc(C)n(-c2cccc(C)c2C)c1C -1.66%
Cc1cccc(NC(=O)C2CCN(S(=O)(=O)c3ccc4[nH]c5c(c4c3)CCCCC5)CC2)c1 2.32%
Cc1cc(C)cc(NC(=O)Cn2cc(C(=O)c3ccncc3)c(=O)c3cc(C)c(C)cc32)c1 -23.1%
CCc1cccc(C)c1NC(=O)C1CCN(c2nnc(C)c3c(C)n(-c4ccccc4)nc23)CC1 -19.3%
COc1ccc(CNC(=O)C2CCN(S(=O)(=O)c3ccc4nc5c(c(C(=O)O)c4c3)CCCC5)CC2)cc1 -23.6%
CN1CCN(c2ncc3c(n2)CCN(Cc2ccc(Br)s2)C3)CC1 -36.8%
CCOc1ccc(NC(=O)COc2ccc(S(=O)(=O)NC3CCCCC3)cc2)cc1 36.6%
CCOC(=O)c1c(Nc2ccc(OC)cc2)nnc(-c2ccccc2)c1-c1ccccc1 -19.6%
CC(=O)c1ccc(N2CCN(C(=O)C3CCN(S(=O)(=O)c4cn(C)cn4)CC3)CC2)cc1 -12.2%
Cn1c(=O)c2sccc2n2c(CCC(=O)NCc3ccc(Cl)cc3)nnc12 -18.1%
CCCOc1ccc(-c2nc(SCC(=O)c3ccc(Cl)cc3)n[nH]2)cc1 46.1%
Cc1ccc(Cl)cc1Nc1nn2c(=O)c3ccc(C(=O)NCc4ccc(F)cc4)cc3nc2s1 23%
CCOc1ccc(CNC(=O)Cc2ccc(NC(=O)N3CCSc4ncccc43)cc2)cc1 -1.58%
Cc1cccn2c(=O)c(C(=O)NCc3cccc(F)c3)cnc12 -12.8%
Cc1cccc(-c2nc3scc(CCNS(=O)(=O)c4ccc5c(c4)OCCO5)n3n2)c1 -0.826%
COc1ccc(Nc2c(-c3cccc(O)c3)nc3cnccn23)cc1 -19.6%
CCOC(=O)N1CCc2c(sc3c2c(=O)n(-c2ccc(Cl)cc2)c(=O)n3CC(C)C)C1 -4.2%
CN(C)CCN(Cc1ccccc1)c1ccccn1 -3.99%
COc1ccc(-c2nc3cc(NC(=O)CSc4ccc(C)cc4)ccc3o2)cc1 42.6%
COc1ccccc1-c1cc(C(=O)NCc2ccccc2)c2c(-c3ccc(C)cc3)[nH]nc2n1 -10.5%
COc1ccc(NC(=O)c2oc3ccccc3c2NC(=O)Cc2coc3c(C)c(C)ccc23)cc1 -13.4%
Cc1ccc(S(=O)(=O)c2nc(S(=O)(=O)c3ccccc3)sc2NCCCOC(C)C)cc1 -22.6%
CCc1ccc(NC(=O)Cn2ccn(-c3ccc(C)c(C)c3)c(=O)c2=O)cc1 2.37%
O=C(CSc1n[nH]c(-c2ccc(F)cc2)n1)NCCc1ccccc1 -0.86%
Cc1c(Cl)cccc1NC(=O)CCS(=O)(=O)c1ccc2c(c1)CC(=O)N2C 28.4%
CCOc1ccc(NC(=O)/C(C#N)=C\c2ccc(-c3ccc(Cl)cc3)o2)cc1 9.46%
COc1cccc(NC(=O)Cn2cc(C(=O)c3ccc(C)cc3)c(=O)c3cc(OC)ccc32)c1 2.85%
